# Measured values taken from the supplement of paper PMC8728848.
# This is one part of the list.
# Tests used:
# Assay in all cases: glycan array binding signal (z-score within array); higher = stronger binding
# Conditions in all cases: glycan notation: IUPAC condensed, linker removed
# [1] = molecular target: Neu5Ac(a2-6)Gal(b1-3)GlcNAc(b1-3)[Gal(b1-4)GlcNAc(b1-6)]Gal(b1-4)Glc
# Procedure, shortened: (§1)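 Arrays were curated from the Consortium for Functional Glycomics database, 3228 in total, and kept only where the protein sequence was available. Binding is expressed as a within-array Z-score. This score was averaged across arrays of the same protein sequence at different concentrations or buffers and across linkers, and negative values can be read as non-binding.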
# [2] = molecular target: Neu5Ac(a2-6)Gal(b1-4)Glc
# Procedure, shortened: as §1
# [3] = molecular target: Neu5Ac(a2-6)Gal(b1-4)GlcNAc
# Procedure, shortened: as §1
# [4] = molecular target: Neu5Ac(a2-6)Gal(b1-4)GlcNAc(b1-2)Man
# Procedure, shortened: as §1
# [5] = molecular target: Neu5Ac(a2-6)Gal(b1-4)GlcNAc(b1-2)Man(a1-3)Man(b1-4)GlcNAc(b1-4)GlcNAc
# Procedure, shortened: as §1
# [6] = molecular target: Neu5Ac(a2-6)Gal(b1-4)GlcNAc(b1-2)Man(a1-3)[Gal(b1-4)GlcNAc(b1-2)Man(a1-6)]Man(b1-4)GlcNAc(b1-4)GlcNAc
# Procedure, shortened: as §1
# [7] = molecular target: Neu5Ac(a2-6)Gal(b1-4)GlcNAc(b1-2)Man(a1-3)[GlcNAc(b1-2)Man(a1-6)]Man(b1-4)GlcNAc(b1-4)GlcNAc
# Procedure, shortened: as §1
# [8] = molecular target: Neu5Ac(a2-6)Gal(b1-4)GlcNAc(b1-2)Man(a1-3)[GlcNAc(b1-4)][Neu5Ac(a2-6)Gal(b1-4)GlcNAc(b1-2)Man(a1-6)]Man(b1-4)GlcNAc(b1-4)GlcNAc
# Procedure, shortened: as §1
# [9] = molecular target: Neu5Ac(a2-6)Gal(b1-4)GlcNAc(b1-2)Man(a1-3)[Man(a1-6)]Man(b1-4)GlcNAc(b1-4)GlcNAc
# Procedure, shortened: as §1
# [10] = molecular target: Neu5Ac(a2-6)Gal(b1-4)GlcNAc(b1-2)Man(a1-3)[Neu5Ac(a2-3)Gal(b1-4)GlcNAc(b1-2)Man(a1-6)]Man(b1-4)GlcNAc(b1-4)GlcNAc
# Procedure, shortened: as §1
# [11] = molecular target: Neu5Ac(a2-6)Gal(b1-4)GlcNAc(b1-2)Man(a1-3)[Neu5Ac(a2-6)Gal(b1-4)GlcNAc(b1-2)Man(a1-6)]Man(b1-4)GlcNAc(b1-4)GlcNAc
# Procedure, shortened: as §1
# [12] = molecular target: Neu5Ac(a2-6)Gal(b1-4)GlcNAc(b1-2)Man(a1-3)[Neu5Ac(a2-6)Gal(b1-4)GlcNAc(b1-2)Man(a1-6)]Man(b1-4)GlcNAc(b1-4)[Fuc(a1-6)]GlcNAc
# Procedure, shortened: as §1
# [13] = molecular target: Neu5Ac(a2-6)Gal(b1-4)GlcNAc(b1-2)Man(a1-6)Man(b1-4)GlcNAc(b1-4)GlcNAc
# Procedure, shortened: as §1
# [14] = molecular target: Neu5Ac(a2-6)Gal(b1-4)GlcNAc(b1-2)Man(a1-6)[Gal(b1-4)GlcNAc(b1-2)Man(a1-3)]Man(b1-4)GlcNAc(b1-4)GlcNAc
# Procedure, shortened: as §1
# [15] = molecular target: Neu5Ac(a2-6)Gal(b1-4)GlcNAc(b1-2)Man(a1-6)[GlcNAc(b1-2)Man(a1-3)]Man(b1-4)GlcNAc(b1-4)GlcNAc
# Procedure, shortened: as §1
# [16] = molecular target: Neu5Ac(a2-6)Gal(b1-4)GlcNAc(b1-2)Man(a1-6)[Man(a1-3)]Man(b1-4)GlcNAc(b1-4)GlcNAc
# Procedure, shortened: as §1
# [17] = molecular target: Neu5Ac(a2-6)Gal(b1-4)GlcNAc(b1-2)[Neu5Ac(a2-6)Gal(b1-4)GlcNAc(b1-4)]Man(a1-3)[GlcNAc(b1-4)][Neu5Ac(a2-6)Gal(b1-4)GlcNAc(b1-2)[Neu5Ac(a2-6)Gal(b1-4)GlcNAc(b1-6)]Man(a1-6)]Man(b1-4)GlcNAc(b1-4)GlcNAc
# Procedure, shortened: as §1
# [18] = molecular target: Neu5Ac(a2-6)Gal(b1-4)GlcNAc(b1-2)[Neu5Ac(a2-6)Gal(b1-4)GlcNAc(b1-4)]Man(a1-3)[GlcNAc(b1-4)][Neu5Ac(a2-6)Gal(b1-4)GlcNAc(b1-4)Man(a1-6)]Man(b1-4)GlcNAc(b1-4)GlcNAc
# Procedure, shortened: as §1
# [19] = molecular target: Neu5Ac(a2-6)Gal(b1-4)GlcNAc(b1-2)[Neu5Ac(a2-6)Gal(b1-4)GlcNAc(b1-6)]Man(a1-6)[Neu5Ac(a2-6)Gal(b1-4)GlcNAc(b1-2)Man(a1-3)][GlcNAc(b1-4)]Man(b1-4)GlcNAc(b1-4)GlcNAc
# Procedure, shortened: as §1
# [20] = molecular target: Neu5Ac(a2-6)Gal(b1-4)GlcNAc(b1-3)Gal(b1-3)GlcNAc
# Procedure, shortened: as §1
# [21] = molecular target: Neu5Ac(a2-6)Gal(b1-4)GlcNAc(b1-3)Gal(b1-4)GlcNAc
# Procedure, shortened: as §1
# [22] = molecular target: Neu5Ac(a2-6)Gal(b1-4)GlcNAc(b1-3)Gal(b1-4)GlcNAc(b1-2)Man(a1-3)[Neu5Ac(a2-6)Gal(b1-4)GlcNAc(b1-3)Gal(b1-4)GlcNAc(b1-2)Man(a1-6)]GalNAc
# Procedure, shortened: as §1
# [23] = molecular target: Neu5Ac(a2-6)Gal(b1-4)GlcNAc(b1-3)Gal(b1-4)GlcNAc(b1-3)Gal(b1-4)GlcNAc
# Procedure, shortened: as §1
# [24] = molecular target: Neu5Ac(a2-6)Gal(b1-4)GlcNAc(b1-3)Gal(b1-4)GlcNAc(b1-3)Gal(b1-4)GlcNAc(b1-2)Man(a1-3)[Neu5Ac(a2-6)Gal(b1-4)GlcNAc(b1-3)Gal(b1-4)GlcNAc(b1-3)Gal(b1-4)GlcNAc(b1-2)Man(a1-6)]GalNAc
# Procedure, shortened: as §1
# [25] = molecular target: Neu5Ac(a2-6)Gal(b1-4)GlcNAc(b1-3)Gal(b1-4)GlcNAc(b1-3)GalNAc
# Procedure, shortened: as §1
# [26] = molecular target: Neu5Ac(a2-6)Gal(b1-4)GlcNAc(b1-3)Gal(b1-4)GlcNAc(b1-3)[Neu5Ac(a2-6)Gal(b1-4)GlcNAc(b1-3)Gal(b1-4)GlcNAc(b1-6)]GalNAc
# Procedure, shortened: as §1
# [27] = molecular target: Neu5Ac(a2-6)Gal(b1-4)GlcNAc(b1-3)Gal(b1-4)GlcNAc(b1-6)[Gal(b1-3)]GalNAc
# Procedure, shortened: as §1
# [28] = molecular target: Neu5Ac(a2-6)Gal(b1-4)GlcNAc(b1-3)Gal(b1-4)[Fuc(a1-3)]GlcNAc(b1-3)Gal(b1-4)[Fuc(a1-3)]GlcNAc
# Procedure, shortened: as §1
# [29] = molecular target: Neu5Ac(a2-6)Gal(b1-4)GlcNAc(b1-3)GalNAc
# Procedure, shortened: as §1
# [30] = molecular target: Neu5Ac(a2-6)Gal(b1-4)GlcNAc(b1-3)[Neu5Ac(a2-6)Gal(b1-4)GlcNAc(b1-6)]GalNAc
# Procedure, shortened: as §1
# [31] = molecular target: Neu5Ac(a2-6)Gal(b1-4)GlcNAc(b1-6)GalNAc
# Procedure, shortened: as §1
# [32] = molecular target: Neu5Ac(a2-6)Gal(b1-4)GlcNAc(b1-6)[Gal(b1-3)GlcNAc(b1-3)]Gal(b1-4)Glc
# Procedure, shortened: as §1
# [33] = molecular target: Neu5Ac(a2-6)Gal(b1-4)GlcNAc(b1-6)[Gal(b1-3)]GalNAc
# Procedure, shortened: as §1
# [34] = molecular target: Neu5Ac(a2-6)Gal(b1-4)GlcNAc6S
# Procedure, shortened: as §1
# [35] = molecular target: Neu5Ac(a2-6)GalNAc
# Procedure, shortened: as §1
# [36] = molecular target: Neu5Ac(a2-6)GalNAc(b1-4)GlcNAc
# Procedure, shortened: as §1
# [37] = molecular target: Neu5Ac(a2-6)GalNAc(b1-4)GlcNAc6S
# Procedure, shortened: as §1
# [38] = molecular target: Neu5Ac(a2-6)GlcNAc(b1-4)GlcNAc
# Procedure, shortened: as §1
binder,measurement,setting,value
PX14375l-pdi-526-25-526 (Parabacteroides distasonis) (protein) DEEPKSTLTDVAYYKTQSQMESNVNYLYRTGAIGSYVDFGSAYIGPFASIQEELTGYFSNSYEGQEIVCRYTRELTRQQNTMQLASKMDKVWDDCYRGINVANGAIKHMPEVPMDQATADRLTAEAKFFRAFNYFYLVKTFGAVPFYTDPYELAENMELPRTETSTIYNQIESDLKDAMNVLPEATFAANGHRITKYVAAMTLTDVYMYQHKYAEAAETVRIVVNSNHKLTTNDDLAMNSAFNKLRSTDDLDEAIYAYEYDNQISPSNWLPTYAFDGDASSNGLFGTYAITQKVHGPNDRYLNIYESNDLRRQPNQFYHWTYTNPKTGKVWNSVGNAACCWYYYDEDALLTTGRGTKDWNVYRYAEALLDAAESIAQSTGVTAEAAGYLAQVKARANMEGKTAAEIASSLQSMGKQAFIEECWTERLRELPLEFKMWDMCVRTGMFPNISETTPGQVTYIPLVGAKNASGATIKESDLLWPLSVNEIQRNPSLTQNEGYSAK,glycan array binding signal (z-score),[1],-0.064
same,glycan array binding signal (z-score),[2],0.019
same,glycan array binding signal (z-score),[3],-0.098
same,glycan array binding signal (z-score),[4],-0.324
same,glycan array binding signal (z-score),[5],-0.029
same,glycan array binding signal (z-score),[6],-0.316
same,glycan array binding signal (z-score),[7],-0.177
same,glycan array binding signal (z-score),[8],-0.181
same,glycan array binding signal (z-score),[9],0.171
same,glycan array binding signal (z-score),[10],-0.142
same,glycan array binding signal (z-score),[11],-0.099
same,glycan array binding signal (z-score),[12],-0.016
same,glycan array binding signal (z-score),[13],-0.077
same,glycan array binding signal (z-score),[14],-0.406
same,glycan array binding signal (z-score),[15],-0.444
same,glycan array binding signal (z-score),[16],-0.055
same,glycan array binding signal (z-score),[17],-0.181
same,glycan array binding signal (z-score),[18],-0.155
same,glycan array binding signal (z-score),[19],-0.325
same,glycan array binding signal (z-score),[20],-0.104
same,glycan array binding signal (z-score),[21],-0.225
same,glycan array binding signal (z-score),[22],-0.238
same,glycan array binding signal (z-score),[23],-0.254
same,glycan array binding signal (z-score),[24],0.174
same,glycan array binding signal (z-score),[25],-0.239
same,glycan array binding signal (z-score),[26],0.043
same,glycan array binding signal (z-score),[27],-0.295
same,glycan array binding signal (z-score),[28],-0.096
same,glycan array binding signal (z-score),[29],-0.311
same,glycan array binding signal (z-score),[30],-0.02
same,glycan array binding signal (z-score),[31],-0.266
same,glycan array binding signal (z-score),[32],-0.32
same,glycan array binding signal (z-score),[33],0.169
same,glycan array binding signal (z-score),[34],-0.135
same,glycan array binding signal (z-score),[35],-0.089
same,glycan array binding signal (z-score),[36],-0.423
same,glycan array binding signal (z-score),[37],0.114
same,glycan array binding signal (z-score),[38],-0.478
